Source: US20230035617A1

Target: Tissue Factor Pathway Inhibitor (TFPI), P10646
Assay: cell-based or functional assay

% Relative Potency by inhibition assay; formulation A (Target); 0 months: 108%
% Relative Potency by inhibition assay; formulation A (Target); 5° C., 6 months: 104%
% Relative Potency by inhibition assay; formulation A (Target); 25° C., 6 months: 97%
% Relative Potency by inhibition assay; formulation A (Target); 40° C., 6 months: 86%
% Relative Potency by inhibition assay; formulation B (Low/High); 0 months: 102%
% Relative Potency by inhibition assay; formulation B (Low/High); 5° C., 6 months: 110%
% Relative Potency by inhibition assay; formulation B (Low/High); 25° C., 6 months: 106%
% Relative Potency by inhibition assay; formulation B (Low/High); 40° C., 6 months: 97%
% Relative Potency by inhibition assay; formulation C (High/Low); 0 months: 101%
% Relative Potency by inhibition assay; formulation C (High/Low); 5° C., 6 months: 110%
% Relative Potency by inhibition assay; formulation C (High/Low); 25° C., 6 months: 109%
% Relative Potency by inhibition assay; formulation C (High/Low); 40° C., 6 months: 86%
% Relative Potency by inhibition assay; formulation D (Low/Low); 0 months: 101%
% Relative Potency by inhibition assay; formulation D (Low/Low); 5° C., 6 months: 108%
% Relative Potency by inhibition assay; formulation D (Low/Low); 25° C., 6 months: 90%
% Relative Potency by inhibition assay; formulation D (Low/Low); 40° C., 6 months: 88%
% Relative Potency by inhibition assay; formulation E (High/High); 0 months: 102%
% Relative Potency by inhibition assay; formulation E (High/High); 5° C., 6 months: 101%
% Relative Potency by inhibition assay; formulation E (High/High); 25° C., 6 months: 111%
% Relative Potency by inhibition assay; formulation E (High/High); 40° C., 6 months: 93%
% Relative Potency by inhibition assay; formulation F (Target, No PS80); 0 months: 99%
% Relative Potency by inhibition assay; formulation F (Target, No PS80); 5° C., 6 months: 99%
% Relative Potency by inhibition assay; formulation F (Target, No PS80); 25° C., 6 months: 114%
% Relative Potency by inhibition assay; formulation F (Target, No PS80); 40° C., 6 months: 93%
Relative Potency (%) by inhibition assay; 150 mg/mL, 1 mL PFS; 25° C./60% RH; 0 months: 106%
Relative Potency (%) by inhibition assay; 150 mg/mL, 1 mL PFS; 25° C./60% RH; 1 month: 122%
Relative Potency (%) by inhibition assay; 150 mg/mL, 1 mL PFS; 25° C./60% RH; 3 months: 109%
Relative Potency (%) by inhibition assay; 150 mg/mL, 1 mL PFS; 25° C./60% RH; 6 months: 98%
Relative Potency (%) by inhibition assay; 150 mg/mL, 1 mL PFS; 25° C./60% RH; 12 months: 99%
Relative Potency (%) by inhibition assay; 150 mg/mL, 1 mL PFS; 40° C./75% RH; 0 months: 106%
Relative Potency (%) by inhibition assay; 150 mg/mL, 1 mL PFS; 40° C./75% RH; 1 month: 106%
Relative Potency (%) by inhibition assay; 150 mg/mL, 1 mL PFS; 40° C./75% RH; 3 months: 96%
Relative Potency (%) by inhibition assay; 150 mg/mL, 2.25 mL PFS; 25° C./60% RH; 0 months: 108%
Relative Potency (%) by inhibition assay; 150 mg/mL, 2.25 mL PFS; 25° C./60% RH; 1 month: 110%
Relative Potency (%) by inhibition assay; 150 mg/mL, 2.25 mL PFS; 25° C./60% RH; 3 months: 110%
Relative Potency (%) by inhibition assay; 150 mg/mL, 2.25 mL PFS; 25° C./60% RH; 6 months: 100%
Relative Potency (%) by inhibition assay; 150 mg/mL, 2.25 mL PFS; 25° C./60% RH; 12 months: 87%
Relative Potency (%) by inhibition assay; 150 mg/mL, 2.25 mL PFS; 40° C./75% RH; 0 months: 108%
Relative Potency (%) by inhibition assay; 150 mg/mL, 2.25 mL PFS; 40° C./75% RH; 1 month: 106%
Relative Potency (%) by inhibition assay; 150 mg/mL, 2.25 mL PFS; 40° C./75% RH; 3 months: 95%
Relative Potency (%) by inhibition assay; 150 mg/mL, Vial; 25° C./60% RH; 0 months: 98%
Relative Potency (%) by inhibition assay; 150 mg/mL, Vial; 25° C./60% RH; 1 month: 96%
Relative Potency (%) by inhibition assay; 150 mg/mL, Vial; 25° C./60% RH; 3 months: 95%
Relative Potency (%) by inhibition assay; 150 mg/mL, Vial; 25° C./60% RH; 6 months: 96%
Relative Potency (%) by inhibition assay; 150 mg/mL, Vial; 25° C./60% RH; 12 months: 91%
Relative Potency (%) by inhibition assay; 150 mg/mL, Vial; 25° C./60% RH; 24 months: 97%
Relative Potency (%) by inhibition assay; 150 mg/mL, Vial; 40° C./75% RH; 0 months: 98%
Relative Potency (%) by inhibition assay; 150 mg/mL, Vial; 40° C./75% RH; 12 months: 83%
B1: mAb-TFPI-106 (anti-TFPI antibody) (antibody, human IgG1, lambda)
heavy: [about 100 residues not shown]LGATSLSAFDIWGQGTMVTVSSASTKGPSVFPLAPSSKSTSGGTAALGCLVKDYFPEPVTVSWNSGALTSGVHTFPAVLQSSGLYSLSSVVTVPSSSLGTQTYICNVNHKPSNTKVDKKVEPKSCDKTHTCPPCPAPEAAGAPSVFLFPPKPKDTLMISRTPEVTCVVVDVSHEDPEVKFNWYVDGVEVHNAKTKPREEQYNSTYRVVSVLTVLHQDWLNGKEYKCKVSNKALPAPIEKTISKAKGQPREPQVYTLPPSREEMTKNQVSLTCLVKGFYPSDIAVEWESNGQPENNYKTTPPVLDSDGSFFLYSKLTVDKSRWQQGNVFSCSVMHEALHNHYTQKSLSLSPG
light: QSVLTQPPSVSGAPGQRVTISCTGSSSNIGAGYDVHWYQQLPGTAPKLLIYGNSNRPSGVPDRFSGSKSGTSASLAITGLQAEDEADYYCQSYDSSLSGSGVFGGGTKLTVLGQPKAAPSVTLFPPSSEELQANKATLVCLISDFYPGAVTVAWKADSSPVKAGVETTTPSKQSNNKYAASSYLSLTPEQWKSHRSYSCQVTHEGSTVEKTVAPTECS
